Experimental findings from paper PMC12136788 are described below.

The chains are these.
T1: UNK ZnF1-6 (called full-length) (human, UniProt Q9C0B0 30-357)
T1 sequence: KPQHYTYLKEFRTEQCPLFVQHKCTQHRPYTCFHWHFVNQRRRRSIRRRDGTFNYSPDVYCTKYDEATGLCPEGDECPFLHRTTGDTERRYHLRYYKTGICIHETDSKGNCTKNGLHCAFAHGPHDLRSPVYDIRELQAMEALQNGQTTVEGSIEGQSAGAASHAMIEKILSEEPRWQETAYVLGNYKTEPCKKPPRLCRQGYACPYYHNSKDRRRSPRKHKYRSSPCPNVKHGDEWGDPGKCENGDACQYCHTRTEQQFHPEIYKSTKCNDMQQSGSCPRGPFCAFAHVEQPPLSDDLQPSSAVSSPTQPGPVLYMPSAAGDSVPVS

B1: ENSG00000071054:stop:overlap|stop_codon|ENSG00000071054|stop_codon|NA|stop_codon (ssRNA)
RNA: GGGAGUUCUACAGUCCGACGAUCCUGGUGGCAGCAGUCAGGUUUAUUUCAUGACCUUAGGCAGGACUUCUCUUCUGAGCUGGUAGAAGCAGUGUGAUCCAGGGAUUACUGGCCUCCAGAGUCUUCAAGAUCCUGAGAACUUGGCAACAGAGGAUUGAGCAUCA
B2: ENSG00000174780:stop:overlap|stop_codon|ENSG00000174780|stop_codon|NA|stop_codon (ssRNA)
RNA: GGGAGUUCUACAGUCCGACGAUCAAGCUGAAGGUUGGAAGUUUGUUAAACUUAUCUGUAAAUAUAACGUGCAUAUAACUUUGUAGAGUAUCUUCUAAAAUUGCAUUUGACUUCUGUGAAAUUAUUAAAUGGAAGUUAUUGAUGCAACAGAGGAUUGAGCAUCA
B3: chr7:73478266:73478367:-|CDS|ENSG00000009954|unk|total|mutant (ssRNA)
RNA: GGGAGUUCUACAGUCCGACGAUCGAGUGGCUCGCCACUCAAAGUGAAGAACUCAAAGAAUUCCAAAUCUCCUGAAGAACAUCCCGAAGAAAUGAUGAAGAUGAUGUCGCCCAAUAAGCUGCACACUAACUUUCACAUUCCUAACAACAGAGGAUUGAGCAUCA
B4: chr2:42682433:42682535:+|CDS|ENSG00000057935|unk|FALSE|unique (ssRNA)
RNA: GGGAGUUCUACAGUCCGACGAUCUCACGCUAUGGAUACAUUGUAUAGACACAGCUAUGAUUUGAGCAGUGCCAUUAGUGUCUUAGUACCACUCGGAGGACCUGUUUUAUGCAGAGAUGAAAUGGAGGAAUGGUCAGCCUCUGACAACAGAGGAUUGAGCAUCA
B5: chr6:122456482:122456612:-|CDS|ENSG00000111897|unk|FALSE|unique (ssRNA)
RNA: GGGAGUUCUACAGUCCGACGAUCUGCUUUGGUUUGGCUAUGUUCUAUCUUCUUCUCUCUUUACUAAUGAUCAAAGUGAAGAGUAGCAGUGAUCCUAGAGCUGCAGUGCACAAUGGGUAAGUUUUUAAAUAAGCUUCAAUAUAACAACAGAGGAUUGAGCAUCA
B6: ENSG00000187498:stop:overlap|stop_codon|ENSG00000187498|stop_codon|NA|stop_codon (ssRNA)
RNA: GGGAGUUCUACAGUCCGACGAUCAGGUGAACCGGGACCUCCUGGAUUGCCAGGCUCCGUGGGGUCUCCAGGAGUUCCAGGAAUAGGCCCCCCUGGAGCUAGGGGUCCCCCUGGAGGACAGGGACCACCGGGGUUGUCAGGCCCCAACAGAGGAUUGAGCAUCA
B7: chr5:96979339:96979440:+|CDS|ENSG00000113441|unk|total|mutant (ssRNA)
RNA: GGGAGUUCUACAGUCCGACGAUCGAGGAGGAUGAAGAGGAUUAUGAGUCAUCAGCAAAGCUGCUGGGCAUGUCCUUCAUGAACCGAAGCUCAGGCCUUCGGAACAGUGCAACUGGUUACAGGCAGAGCCCAGAUGGGGCUUGUCAACAGAGGAUUGAGCAUCA
B8: chr17:78107396:78113211:-|three_prime_utr|ENSG00000141524|control|control|control (ssRNA)
RNA: GGGAGUUCUACAGUCCGACGAUCUUGGGACAACCGAGGAGGCUGCGGCACCCCCUGCCCUGCUCACAGAUGAACAGGAUGCCUAGGGGGACGGCGAUGGGCCUCACGGGCCCGCCCAGCACCCUGAGACCACACUGUUGCCUCCAACAGAGGAUUGAGCAUCA
B9: ENSG00000160209:stop:overlap|stop_codon|ENSG00000160209|stop_codon|NA|stop_codon (ssRNA)
RNA: GGGAGUUCUACAGUCCGACGAUCCCUUGACCUCCUGGGCUGAAGCAAUCUUUCUGCCUCCACCUCCCGAGUGGCUGGGACUAUAGUUGUGCACCAGCACGCCCACCUCCUGCCCAGGGUUGUUACUGGGGUGGUCACGUGGGCCAACAGAGGAUUGAGCAUCA
B10: chr5:173316221:173316322:-|3pUTR|ENSG00000113739|msi1|FALSE|unique (ssRNA)
RNA: GGGAGUUCUACAGUCCGACGAUCAGUACUUUCAGUUUGGCGAGCCGUGAGGUCUCUGUCGAAACUACUCAACUCUGCCGUCCUAGCACAAAAGCAGCCAUAGACAACACACAAACGAGAGGGCUUGGCUCCCUUCCAGGAAGACAACAGAGGAUUGAGCAUCA
B11: chrX:106900062:106900748:-|three_prime_utr|ENSG00000147223|control|control|control (ssRNA)
RNA: GGGAGUUCUACAGUCCGACGAUCGAGGCAGCCAGAGUCUGAUUGGGGUUCAGUUUGUCUGGCAAGUUUUCACAGACAUCAGUUAGCCGGAAGUAUUAGUCCAGCAGAUAGAGCUUUCUGGACUGAAAAUUGGGUCAUCUAGCUCAACAGAGGAUUGAGCAUCA
B12: ENSG00000136451:be:win_2901|3pUTR|ENSG00000136451|bound_else_gene|NA|bound_elsewhere_windowed (ssRNA)
RNA: GGGAGUUCUACAGUCCGACGAUCUCUUUACACCAUCAUGCCACGCAUUGUUUUUAAAGCAUUGCGUUAAAAAAAAAAUUAACUAAACCAAGAUGCUGUGAUUUUUUAAGUUGCAAUAUGUUUUUGGUUUUUUUCAUUUUUUAACAACAGAGGAUUGAGCAUCA
B13: ENSG00000116560:stop:overlap|stop_codon|ENSG00000116560|stop_codon|NA|stop_codon (ssRNA)
RNA: GGGAGUUCUACAGUCCGACGAUCCAGCAGGAUAUGGUAGAGGGAGAGAAGAGUACGAAGGCCCAAACAAAAAACCCCGAUUUUAGAUGUGAUAUUUAGGCUUUCAUUCCAGUUUGUUUUGUUUUUUUGUUUAGAUACCAAUCUCAACAGAGGAUUGAGCAUCA
B14: ENSG00000198589:be:win_1601|CDS|ENSG00000198589|bound_else_gene|NA|bound_elsewhere_windowed (ssRNA)
RNA: GGGAGUUCUACAGUCCGACGAUCAGUCUUCCAAAUCUCAUGUUAGCAGAGCAGUACUUGAACUUUGCCUUGCAUUUUCAAAAUAUCUGAGUAAUCUGCAGAAUGGGAUGCCCCUGCUCAAGCAAUUGUGUGAUCACGUUCUUCCAACAGAGGAUUGAGCAUCA
B15: chr2:226864888:226864989:+|CDS|ENSG00000144468|unk|total|mutant (ssRNA)
RNA: GGGAGUUCUACAGUCCGACGAUCUGCUGAUGAUUGGCAUUUGUAUUUCAAUAUGGCAUCCAUGCUCUGGAAAGGAAUAAAUCCCGAAAGAAGACUGGGAAGCCGAUGGUUUGCCUAUGUUAUCACCGCAUUUUCUGUACUUACCAACAGAGGAUUGAGCAUCA
B16: chr4:24540214:24540319:-|CDS|ENSG00000109606|unk|total|mutant (ssRNA)
RNA: GGGAGUUCUACAGUCCGACGAUCUACUUUGUCACAUUUUUGCUUGCUUAAGGCACCGUGUCUAACCGAUUGUCUUUUACCACCCGCUCCUGAAACUCUGAUGAGAGCCCUGGAACUUUUGAAUUACCUGGCUGCUUUAAAUGACAACAGAGGAUUGAGCAUCA
B17: chr1:84929557:84929679:-|CDS|ENSG00000153898|control|control|control (ssRNA)
RNA: GGGAGUUCUACAGUCCGACGAUCAAAUUCCAACAGAAUGGGUUUCCUGAAACGGAUUUGCAGGAAUUCCUGAAGGAAUGCAGUAGCAAAGAAGAGUAUCAGAAAGAGUCCUCAGCCUUCCUGUCCUGCAUCUGCUGUCGGAGGCAACAGAGGAUUGAGCAUCA
B18: ENSG00000198589:be:win_1451|CDS|ENSG00000198589|bound_else_gene|NA|bound_elsewhere_windowed (ssRNA)
RNA: GGGAGUUCUACAGUCCGACGAUCAUUACAGGCAAUAUUUGUCUGAUGAGAUUGAUUUGACUAUAUGUUCAACCUUGCUGGCCUUUAUCAUGGAAUUGUUGAAGAACUCAAUUGCUAUGCAGGAACAGAUGCUUGCCUGUAAGGCAACAGAGGAUUGAGCAUCA
B19: chr9:88477803:88477904:+|3pUTR|ENSG00000106723|msi1|total|mutant (ssRNA)
RNA: GGGAGUUCUACAGUCCGACGAUCGACAAUACAAGACAUGAAUCUAUGUAUAAAAUUUAUCGGCCUUUCUCAUUUACCUGCUCCCGUAUUAUUGUAUUGUGUGUGCGUGCGUGUGUGAUGUCAGGCUGCCACGUAAAACUUCAGCAACAGAGGAUUGAGCAUCA
B20: chr9:34253332:34253433:-|3pUTR|ENSG00000186638|unk|total|mutant (ssRNA)
RNA: GGGAGUUCUACAGUCCGACGAUCCUCUGAAACAGAAUUCACACACAAACCUUCAGCCAAGUUCUGCCUGCUGUGUAUCUUUUCCGCAGGAAGCAGCUCAGGACAGGGAAGACAAAGCCGCCUCCAGGUGCCAAUUACUUUAAACAACAGAGGAUUGAGCAUCA
B21: chr3:31636526:31636632:+|3pUTR|ENSG00000163527|unk|total|mutant (ssRNA)
RNA: GGGAGUUCUACAGUCCGACGAUCCAAAAUGUGAUGAGAGCUUCUUGAACCGGUAAACCCGUACAGGUCUGAGAAAGACAUAUCCGAAGAAUCAUUAUACUUCCUUGAAUUAUAUUUAUUUUCAUGUUUCUCUAAUGCAAAGAACAACAGAGGAUUGAGCAUCA
B22: ENSG00000198589:be:win_2951|CDS|ENSG00000198589|bound_else_gene|NA|bound_elsewhere_windowed (ssRNA)
RNA: GGGAGUUCUACAGUCCGACGAUCAUUUCACCACAAAUGGUAAUGAAAAUUCAAGUAUAGAGAAGACAAGUUCACUAGAAUCUGCAUCUAAUAUUGAACUGCAAACUACUAAUACAUCUUAUGAAGAAAUGAAAGCUGAGCAAGCAACAGAGGAUUGAGCAUCA

The other results are listed elsewhere or left out.

In the assay the target is T1, UNK ZnF1-6 (called full-length). Kind of assay: nsRBNS (natural sequence RNA bind-n-seq); RBNS binding buffer (assumed for nsRBNS): 25 mM Tris pH 7.5, 150 mM KCl, 3 mM MgCl2, 0.01% Triton X-100, 500 ug/ml BSA, 20 U/ml SUPERase-In, 4 C; UNK is unkempt and MSI1 is Musashi-1; names of the RNAs are library labels; protein concentration not given here; high values mean tight binding.
In turn, B1 returned a binding signal of 0.623 enrichment R. Regarding B2, the binding signal is 0.733 enrichment R. Take B3: the binding signal was 0.273 enrichment R.

B4 gave a binding signal of 0.747 enrichment R. For B5, the binding signal stood at 0.536 enrichment R. For the molecule B6, the binding signal came out at 0.745 enrichment R. Molecule B7 had a binding signal of 0.656 enrichment R. In the case of B8, the binding signal amounted to 0.752 enrichment R.

For B9, the binding signal is 0.427 enrichment R. B10 had a binding signal of 1.21 enrichment R. B11 came in with a binding signal of 0.809 enrichment R. Molecule B12 came in with a binding signal of 0.398 enrichment R.

Turning to B13, the binding signal came to 0.62 enrichment R. B14 returned a binding signal of 0.296 enrichment R. B15 came in with a binding signal of 0.31 enrichment R. Turning to B16, the binding signal is 0.373 enrichment R.

B17 registered a binding signal of 0.792 enrichment R. On to B18, for which the binding signal stood at 0.223 enrichment R. With B19, the binding signal was determined as 0.552 enrichment R. Under B20 stands 0.674 enrichment R; under B21, 0.279 enrichment R.

In the case of B22, the binding signal was determined as 0.382 enrichment R.
